Laboratory results reported in PMC4336329 (PLoS ONE, 2015).
The whole screen tested about 310,000 compounds, of which about 14,000 (4.5%) showed an effect of 50% or more. Effects have a minus sign here. Some of the results follow.

biological target: human ether-à-go-go-related gene (hERG) potassium channel (human, UniProt Q12809); assay: primary screen, population patch clamp on CHO cells stably expressing hERG
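Also: peak tail current of the secondary pulse compared with the same well before compound.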

Chain of human ether-à-go-go-related gene (hERG) potassium channel (Q12809 whole entry, looked up): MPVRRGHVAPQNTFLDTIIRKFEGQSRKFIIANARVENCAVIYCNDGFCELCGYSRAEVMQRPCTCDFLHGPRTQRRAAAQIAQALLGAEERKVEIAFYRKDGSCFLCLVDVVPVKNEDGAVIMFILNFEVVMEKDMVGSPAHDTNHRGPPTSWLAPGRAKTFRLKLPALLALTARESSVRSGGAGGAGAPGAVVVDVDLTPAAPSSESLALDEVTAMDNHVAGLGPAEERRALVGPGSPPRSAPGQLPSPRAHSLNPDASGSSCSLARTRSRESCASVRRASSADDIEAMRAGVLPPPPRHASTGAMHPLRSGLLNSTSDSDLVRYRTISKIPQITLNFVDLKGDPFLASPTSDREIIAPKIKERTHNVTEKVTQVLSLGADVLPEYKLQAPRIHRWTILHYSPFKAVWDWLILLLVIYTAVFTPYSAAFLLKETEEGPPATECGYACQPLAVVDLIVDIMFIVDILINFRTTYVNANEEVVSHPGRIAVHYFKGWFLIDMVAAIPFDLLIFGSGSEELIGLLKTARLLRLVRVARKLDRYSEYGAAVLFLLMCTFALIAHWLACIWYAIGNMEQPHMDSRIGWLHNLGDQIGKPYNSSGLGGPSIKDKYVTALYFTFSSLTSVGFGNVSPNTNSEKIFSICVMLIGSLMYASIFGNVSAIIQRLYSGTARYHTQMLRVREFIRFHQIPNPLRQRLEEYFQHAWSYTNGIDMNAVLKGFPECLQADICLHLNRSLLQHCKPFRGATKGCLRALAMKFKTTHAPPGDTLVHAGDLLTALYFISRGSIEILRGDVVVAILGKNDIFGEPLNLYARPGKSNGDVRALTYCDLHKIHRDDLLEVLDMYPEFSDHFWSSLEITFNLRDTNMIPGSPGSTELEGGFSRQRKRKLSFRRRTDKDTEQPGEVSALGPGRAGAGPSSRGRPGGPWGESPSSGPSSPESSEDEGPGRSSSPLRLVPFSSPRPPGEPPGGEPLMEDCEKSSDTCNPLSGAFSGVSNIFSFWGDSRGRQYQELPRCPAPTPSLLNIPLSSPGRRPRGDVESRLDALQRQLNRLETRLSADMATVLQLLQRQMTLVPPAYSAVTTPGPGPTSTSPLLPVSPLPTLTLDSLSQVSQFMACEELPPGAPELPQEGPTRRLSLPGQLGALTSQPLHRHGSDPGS

| SMILES | hERG current change (%, negative = inhibition) at 10uM [%] |
| --- | --- |
| NNC(=S)NC1CCS(=O)(=O)C1 (stereo not drawn) | 22.1 |
| Cc1cc(C)cc(-c2nnc(SCC(=O)NC3CC3)o2)c1 | -1.77 |
| CC(Sc1ncccn1)C(=O)NC1(C#N)CCCCC1 (stereo not drawn) | 1.49 |
| COc1ccc(CNC(=O)C2CCCN(c3nccc(C)n3)C2)cc1 (stereo not drawn) | -0.849 |
| CCOC(=O)NNC(=O)C12CC3CC(CC(C3)C1)C2 | 3.96 |
| O=C(CCCNC(=O)c1ccc(Cl)cc1)NCc1ccccc1Cl | 6.27 |
| Cc1nc(-c2ccccc2)nc(-c2ccccc2)n1 | -11.6 |
| Cc1ccc(C)c(-n2nnnc2SCC(=O)c2c(N)n(C)c(=O)n(C)c2=O)c1 | 10.7 |
| CC(C)c1ccc(NC2CCCN(C(=O)CC3CCCC3)C2)cc1 (stereo not drawn) | -28 |
| Cc1ccc(CNC(=O)c2cc(Cl)cc(Cl)c2)n1C | -8.85 |
| COc1ccc(Cl)cc1NC(=O)C[n+]1ccccc1.[Cl-] | 15.2 |
| COc1cccc(NC(=O)Cn2c(=O)n(CC3CCCO3)c(=O)c3ccccc32)c1 (stereo not drawn) | 2.78 |
| Cc1ccc(C)c(S(=O)(=O)N2CCCOC2CNC(=O)C(=O)NCc2ccccc2)c1 (stereo not drawn) | -21.3 |
| CC(C)Oc1ccc(C(=O)NCCCNC(=O)c2ccccn2)cc1 | -0.573 |
| Cc1cc(C)n(C(C)CNS(=O)(=O)c2ccc(C)c(C)c2)n1 (stereo not drawn) | 24.4 |
| COc1cccc(CNC(=O)CSc2ccc(-c3ccccn3)nn2)c1 | 0.00278 |
| COc1cc(C=O)ccc1OCc1cccc(Br)c1 | -1.11 |
| CC(C)(C)c1cc(CCC(=O)NNC(=S)NC(=O)c2ccccc2)cc(C(C)(C)C)c1O | 2.36 |
| O=C1N2CCSC2=NC1(Nc1ccccn1)C(F)(F)F (stereo not drawn) | 19.3 |
| O=CNC(n1cnc2c(N3CCOCC3)ncnc21)C(Cl)(Cl)Cl (stereo not drawn) | 8.34 |
| Cc1ccc(NS(=O)(=O)c2ccc(C)c(C(=O)NCC(c3ccccc3)N(C)C)c2)cc1 (stereo not drawn) | -15.6 |
| Cc1ccc(Nc2cc(C)c3ccc(O)cc3n2)cc1C.Cl | -58.5 |
| Cc1cccc(N(C)S(=O)(=O)c2ccc(-c3cc(C)no3)s2)c1 | 6.83 |

| SMILES | hERG current change (%, negative = inhibition) at 10uM [%] |
| --- | --- |
| Cc1ccc(N/C(N)=N/c2nc(CSc3ccccn3)cc(=O)[nH]2)c(C)c1 | -3.78 |
| COc1ccc(CCNC(=O)CCNC(=O)c2ccco2)cc1OC | 20.2 |
| O=C(C1CCC(=O)N(C2CC2)C1)N1CCN(c2cccc(Cl)c2)CC1 (stereo not drawn) | 3.1 |
| CCCc1nc2nc(C)c(NS(=O)(=O)c3ccc(C4CCCCC4)cc3)c(=O)n2[nH]1 | 10.3 |
| COc1cccc(NC(=O)NCCC2=CCCCC2)c1 | -13.1 |
| CCCCNC(=O)CNC(=O)c1nn(-c2ccc(OC)cc2)c(=O)c2ccccc12 | -1.58 |
| O=C(COC(=O)c1ccc(Cl)c(Cl)c1)Nc1cccnc1Cl | 2.06 |
| COc1cc(S(=O)(=O)NCc2ccncc2)ccc1Br | 10.6 |
| CC(=O)c1ccc(NC(=S)Nc2ccc(Br)c(Cl)c2)cc1 | 12.6 |
| CCOc1ccc(N(Cc2cc3ccc(C)cc3[nH]c2=O)C(=O)COC)cc1 | -28.5 |
| Cc1ccccc1NC(=S)NC(C)C(c1cccs1)N1CCOCC1 (stereo not drawn) | 2.05 |
| COc1ccc(/C=C/C(=O)OC2CCCCC2CN(C)C)cc1.Cl (stereo not drawn) | -13.2 |
| C/C(CC(=O)Nc1ccc([N+](=O)[O-])cc1)=N\NC(=O)c1ccccc1O | 1.24 |
| O=C(CN1CCN(Cc2ccccc2)CC1)NCCc1ccccc1 | -8.09 |
| COCCn1c(SCC(=O)NCc2ccccc2)nc2ccccc21 | 1.06 |
| O=C(COc1ccccc1Cl)Nc1cccnc1 | -8.34 |
| CCCCOc1ccc(Cc2c(COCC)[nH]c(=S)[nH]c2=O)cc1 | -13.7 |
| COc1ccc(S(=O)(=O)N2CCOCC2)cc1NC(=O)Cc1ccccc1Cl | 8.42 |
| O=C(N/N=C\c1cccnc1)c1cc(-c2ccc(Cl)s2)[nH]n1 | -1.87 |
| COc1cc(NC(=O)CCCC(=O)OCC(F)(F)C(F)F)nc(OC)n1 | -11.2 |
| CS(=O)(=O)N1CCCC(C(=O)Nc2ccc(F)cc2)C1 (stereo not drawn) | -1.33 |
| CCN1C(=O)C2C(C1=O)N1C(c3cccs3)C3C(=O)N(CC)C(=O)C3N1C2c1cccs1 (stereo not drawn) | 15.7 |
| O=C(C1CCN(c2nnc(-n3cccc3)s2)CC1)N1CCOCC1 | -13.9 |

| SMILES | hERG current change (%, negative = inhibition) at 10uM [%] |
| --- | --- |
| Cc1ccc(C(C)C)cc1OCCOCCN1CCCC1 | -38.9 |
| O=C1CC(SC(=Nc2ccccc2)Nc2ccccc2)C(=O)N1c1cccc2ccccc12 (stereo not drawn) | 14.4 |
| Cn1c(SCC(=O)N2c3ccccc3CCc3ccccc32)nnc1-c1cc2ccccc2cc1O | 12.9 |
| COCC1CCCN(C(=O)c2ccc3oc(Cc4ccc(Cl)cc4)nc3c2)C1 (stereo not drawn) | -24.7 |
| O=c1c2cc3c(cc2[nH]c(=S)n1Cc1ccco1)OCO3 | 4.18 |
| Cc1cc(Nc2cccc(F)c2)n2nc(C)nc2n1 | -12.1 |
| CCOc1ccccc1CN1C(=O)c2ccccc2C1C(=O)NCC1CCCO1 (stereo not drawn) | 6.19 |
| CCOC(=O)Cc1csc(NC(=O)C(C)(C)CC)n1 | 1.22 |
| CCOC(=O)c1c(NC(=O)NC(C)(C)C)sc2c1CCN(C)C2 | -21.4 |
| O=C(CN1C(=O)NC2(CCc3ccccc32)C1=O)c1ccc(F)c(F)c1 (stereo not drawn) | -17.1 |
| O=S(=O)(NCC(O)COCc1ccco1)c1cccs1 (stereo not drawn) | 18.5 |
| Nc1c(C(=O)OCC2CCCO2)c2nc3ccccc3nc2n1-c1ccc2c(c1)OCCO2 (stereo not drawn) | 12.5 |
| CN(CC(=O)Nc1cccc(F)c1)C(=O)CCN1C(=O)C2CC=CCC2C1=O (stereo not drawn) | -2.42 |
| Cc1cc(C)c(OCC(=O)OCC(=O)NNC(=O)c2ccccc2F)c(C)c1 | 4.54 |
| COc1ccc2[nH]c(C)c(CCNCc3cc(OC)c4c(c3)OCO4)c2c1.O=C(O)C(=O)O | -17 |
| CSc1nc(N)nc(SCC(=O)C(C)(C)C)c1C#N | -10.5 |
| CCCN(C(=O)c1ccc(N2CCCC2=O)cc1)c1c(N)n(Cc2ccccc2)c(=O)[nH]c1=O | -1.79 |
| COc1ccc(S(=O)(=O)N2CCc3ccccc32)cc1NC(C)=O | 15.7 |
| CN(C)/C=N/c1ncc(C(=O)OC(C)(C)C)s1 | 12.3 |
| COc1ccc(C(=O)CSc2nccc(=O)[nH]2)cc1 | 0.908 |
| CC1(C(=O)Nc2ccc3c(c2)OCO3)CC1(Cl)Cl (stereo not drawn) | 12.5 |
| COc1ccc(-c2nc3n(n2)C(c2ccccc2Cl)C(C(N)=O)=C(C)N3)cc1 (stereo not drawn) | -27.4 |
| CCn1c2ccccc2c2cc(NC(=O)c3cccc(OC)c3)ccc21 | 13.9 |

| SMILES | hERG current change (%, negative = inhibition) at 10uM [%] |
| --- | --- |
| COc1ccccc1N1CCN(C(=O)CNC(=O)c2cn(-c3ccccc3OC)c(=O)c3ccccc23)CC1 | -15.6 |
| CC1(C)CC(NC(=O)COc2cc3oc(=O)c4c(c3cc2Cl)CCC4)CC(C)(C)N1 | 11.2 |
| O=C(CSc1nccc(=O)[nH]1)Nc1ccc(Br)c(Cl)c1 | 33.3 |
| Cc1cccc(-c2noc(CN(C(=O)/C=C/c3ccccc3Cl)C(C)C)n2)c1 | -2.77 |
| CC(C)N1CCC(N2CCN(Cc3ccc(C#CC(C)(C)O)s3)CC2CCO)CC1 (stereo not drawn) | 4.56 |
| O=C(CC12CC3CC(CC(C3)C1)C2)N/N=C\c1ccc[nH]1 | 3.75 |
| CS(=O)(=O)Nc1ccc(C(=O)NCCC2=CCCCC2)cc1 | -38.7 |
| Cc1cc(C)c(C)c(OCCCCN2CCCCC2)c1 | -52.5 |
| CCCOc1cc(CC(=O)NCc2ccco2)ccc1OC | 12.7 |
| CC1(c2ccccc2)NC(=O)N(CC(=O)NC(=O)NC2CCCC2)C1=O (stereo not drawn) | 0.115 |
| Cn1cnc([N+](=O)[O-])c1Nc1ccc(O)cc1 | 9.63 |
| COc1ccccc1CNC(=O)COc1ccc(C)cc1 | -2.42 |
| C=CCn1c(SCC(=O)N(CCOC)c2c(N)n(CCCC)c(=O)[nH]c2=O)nnc1-c1ccc(Cl)cc1 | 4.06 |
| Cc1ccc2c(c1)N(CC(=O)NCCc1ccccc1)C(=O)c1cccnc1O2 | -4.02 |
| Fc1ccc(Cn2ccc(-c3cnc(-c4ccccc4)s3)n2)cc1 | 6.92 |
| COc1ccccc1CNC(=O)c1ccccc1N(C)S(C)(=O)=O | -1.07 |
| O=C(CCCOc1ccccc1)Nc1ccncc1 | 8.26 |
| NS(=O)(=O)c1cccc(NC(=O)COC(=O)CNC(=O)c2ccc(-c3ccccc3)cc2)c1 | 5.77 |
| CN(C)C(=O)Oc1ccc(OC(=O)c2ccccc2)cc1 | 7.81 |
| CCOc1ccc2c(c1)-c1c(ssc1=S)C(C)(C)N2C(=O)CSC1=NCCS1 | 13.1 |
| Cc1ccc(C(=O)COC(=O)C2CC3CCCC(C2)C3=O)cc1[N+](=O)[O-] (stereo not drawn) | -7.77 |
